The supplement of paper PMC4604168 (melanoma cell lines)
This is one part of the list. Single values are uncertain, as repeats are few or missing.

Legend:
Assay in all cases: cell count relative to DMSO control; melanoma cells; higher = more viable cells
Details in all cases: library dose: standard library concentration; 72 h
[1] = test system: G361
[2] = test system: IPC-298
[3] = test system: IST-MEL1
[4] = test system: LB2518-MEL
[5] = test system: LOXIMVI
[6] = test system: MEL-HO
[7] = test system: MZ2-MEL
[8] = test system: MeWo
[9] = test system: RPMI7951
[10] = test system: RVH-421
[11] = test system: SkMel28
[12] = test system: SkMel2
[13] = test system: SkMel30
[14] = test system: SkMel5
[15] = test system: UACC257
[16] = test system: UACC62
[17] = test system: WM115
[18] = test system: WM1716
[19] = test system: WM1745
[20] = test system: WM3526
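Also: cells treated in 1,536-well plates, then fixed and DAPI-stained, with nuclei counted from automated high-throughput microscope images.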

SMILES	cell count [1] [%]	cell count [2] [%]	cell count [3] [%]	cell count [4] [%]	cell count [5] [%]	cell count [6] [%]	cell count [7] [%]	cell count [8] [%]	cell count [9] [%]	cell count [10] [%]	cell count [11] [%]	cell count [12] [%]	cell count [13] [%]	cell count [14] [%]	cell count [15] [%]	cell count [16] [%]	cell count [17] [%]	cell count [18] [%]	cell count [19] [%]	cell count [20] [%]
CC1(C)NC(=O)N(c2ccc([N+](=O)[O-])c(C(F)(F)F)c2)C1=O [nilutamide] + C[C@@H]1CCN(C(=O)CC#N)C[C@@H]1N(C)c1ncnc2[nH]ccc12 [CP690550] (first compound 5 µM, partner dose 5 µM)	101	101	104	111	79.7	95.6	124	77.7	120	91	95.8	97.8	96.4	82.1	88.1	116	86.4	89.8	75.2	100
O=C(O)c1ccc(-c2c[nH]c3ncc(-c4ccccc4)cc23)cc1C1CCCC1 + COc1ccc2c(c1)CCC1C2CCC2(C)C(NCCCCCCN3C(=O)C=CC3=O)CCC12 [U73122] (first compound 0.8 µM, partner dose 2 µM)	50	87.8	76.6	79.4	75.3	69.8	73	74.3	25.1	90	78.8	72	85.1	91	68.4	93.3	98.5	76.1	76	87.6
COc1cc(Nc2ncc(F)c(Nc3ccc4c(n3)NC(=O)C(C)(C)O4)n2)cc(OC)c1OC [Tamatinib] + NC(=O)Nc1cc(-c2cccc(F)c2)sc1C(=O)N[C@H]1CCCNC1 [AZD7762] (first compound 2 µM, partner dose 0.1 µM)	75.3	81.4	15.1	95.6	18.6	82	89	82.5	27.8	111	65.8	74.7	98.7	58.3	75.4	66.4	56.7	68	26	55.2
COc1cc(Nc2ncc(F)c(Nc3ccc4c(n3)NC(=O)C(C)(C)O4)n2)cc(OC)c1OC [Tamatinib] + Cc1cc(N2CCOCC2)cc2[nH]c(-c3c(NC[C@@H](O)c4cccc(Cl)c4)cc[nH]c3=O)nc12 [BMS536924] (first compound 2 µM, partner dose 1 µM)	65.9	79	53.6	91.2	26.7	67.5	81.8	60.7	24.5	95.1	67.6	64.9	89.4	47.8	71.2	47.1	64.6	68	22.4	69.2
COc1cc(Nc2ncc(F)c(Nc3ccc4c(n3)NC(=O)C(C)(C)O4)n2)cc(OC)c1OC [Tamatinib] + O=S(=O)(c1ccccc1)N(CC(F)(F)F)c1ccc(C(O)(C(F)(F)F)C(F)(F)F)cc1 [T0901317] (first compound 2 µM, partner dose 7 µM)	46.7	63.7	60.2	95	25.6	72.9	52.1	69.7	39.3	60.5	68.5	61.5	69.8	36.2	62.5	55.4	61.2	73	22.9	61.3
O=C(O)c1ccc(-c2c[nH]c3ncc(-c4ccccc4)cc23)cc1C1CCCC1 + Oc1cc(-c2nc(-c3ccccc3)[nH]c2-c2ccncc2)ccc1Cl [L779450] (first compound 0.8 µM, partner dose 1 µM)	48.5	68.3	83.8	86.5	96.4	66.5	93.2	88.5	63	54.3	41.7	29.3	84.7	64.7	68.7	54.8	43.7	62.2	61.8	45.5
O=c1[nH]nc(Sc2ncc([N+](=O)[O-])s2)n1-c1ccc2c(c1)OCCO2 + Nc1cccc2c1CN(C1CCC(=O)NC1=O)C2=O [lenalidomide] (first compound 1 µM, partner dose 5 µM)	86.7	106	111	106	95.4	107	101	115	84.2	119	106	87.4	93.9	78.5	95.5	89.2	78.9	91.8	80.4	75.2
O=C(O)c1ccc(-c2c[nH]c3ncc(-c4ccccc4)cc23)cc1C1CCCC1 + COc1cc2c(Oc3ccc4[nH]c(C)cc4c3F)ncnc2cc1OCCCN1CCCC1 [cediranib] (first compound 0.8 µM, partner dose 2 µM)	57.8	110	79.2	97.3	74.7	76.8	83.3	94.3	63.5	76.6	79.2	74.2	87.8	73	72.5	90.7	84.2	75.4	93.7	82.7
COc1cc(Nc2ncc(F)c(Nc3ccc4c(n3)NC(=O)C(C)(C)O4)n2)cc(OC)c1OC [Tamatinib] + COc1ccc(-c2ccc3c(N4CCOCC4)nc(N4C[C@@H](C)O[C@@H](C)C4)nc3n2)cc1CO [KU0063794] (first compound 2 µM, partner dose 0.1 µM)	80.9	66.4	76.3	87	26.2	69	57.6	52.9	31.3	72.4	60.7	75.2	73.7	39.2	83.7	75.6	60.7	81.8	30.6	67.4
O=c1[nH]nc(Sc2ncc([N+](=O)[O-])s2)n1-c1ccc2c(c1)OCCO2 + O=C(O)c1ccc2c(c1)nc(Nc1cccc(Cl)c1)c1ccncc12 [CX4945] (first compound 1 µM, partner dose 2 µM)	92	70.7	75.3	114	72.6	59.4	81.4	105	62.4	81.7	67	106	92.7	74.7	92.2	59.4	99.2	78.4	69.7	81.9
C[C@@H]1CCN(C(=O)CC#N)C[C@@H]1N(C)c1ncnc2[nH]ccc12 + O=S(=O)(c1ccccc1)N(CC(F)(F)F)c1ccc(C(O)(C(F)(F)F)C(F)(F)F)cc1 [T0901317] (first compound 5 µM, partner dose 7 µM)	69.4	83.2	95	98.3	89.5	85.6	97.8	91.4	85.8	94.8	65.9	87	96.1	61.5	75.7	94.2	75.8	89	63.5	68.6
CC1(C)NC(=O)N(c2ccc([N+](=O)[O-])c(C(F)(F)F)c2)C1=O [nilutamide] + Oc1nc(-c2ccc(C(F)(F)F)cc2)nc2c1CSCC2 [XAV939] (first compound 5 µM, partner dose 10 µM)	86.1	92.7	112	74.6	69.8	95.6	93.2	85.7	67.2	98.4	74.6	93.1	89	87.1	83.9	111	94.1	67.4	74.4	88.1
O=C(O)c1ccc(-c2c[nH]c3ncc(-c4ccccc4)cc23)cc1C1CCCC1 + CCc1ccc(CCOc2ccc(CC3SC(=O)NC3=O)cc2)nc1 [pioglitazone] (first compound 0.8 µM, partner dose 10 µM)	55.1	76.4	72.2	91.3	99.4	75.6	72.1	97.7	99	91.3	68.3	80	83.9	93.3	71	111	73.6	76.5	77.5	98.1
COc1cc(Nc2ncc(F)c(Nc3ccc4c(n3)NC(=O)C(C)(C)O4)n2)cc(OC)c1OC [Tamatinib] + COc1ccc(COc2ccc(Cc3cnc(N)nc3N)cc2OC)cc1 [GW2580] (first compound 2 µM, partner dose 5 µM)	72.9	80.9	91.2	111	54.4	75.1	69.9	66	56.8	74.5	79.1	87.1	59.5	50.7	69.2	68.5	74.1	101	61.3	88.8
CC1(C)NC(=O)N(c2ccc([N+](=O)[O-])c(C(F)(F)F)c2)C1=O [nilutamide] + Cc1cc(N2CCOCC2)cc2[nH]c(-c3c(NC[C@@H](O)c4cccc(Cl)c4)cc[nH]c3=O)nc12 [BMS536924] (first compound 5 µM, partner dose 1 µM)	69.7	96.5	98.9	81.6	70.8	103	109	74.2	91	98.6	62.1	77.8	112	67.6	98.1	63.9	102	100	57.9	94.8
COc1cc(Nc2ncc(F)c(Nc3ccc4c(n3)NC(=O)C(C)(C)O4)n2)cc(OC)c1OC [Tamatinib] + CCc1ccc(CCOc2ccc(CC3SC(=O)NC3=O)cc2)nc1 [pioglitazone] (first compound 2 µM, partner dose 10 µM)	80.2	70.6	77.9	80.8	35.9	67.3	69.7	79.4	29.7	87.2	51.1	83.5	87.6	60.2	74.3	66.5	85.5	69.8	51.8	76.3
COc1cc(Nc2ncc(F)c(Nc3ccc4c(n3)NC(=O)C(C)(C)O4)n2)cc(OC)c1OC [Tamatinib] + COc1cc(N2CCC(N3CCN(C)CC3)CC2)ccc1Nc1ncc(Cl)c(Nc2ccccc2S(=O)(=O)C(C)C)n1 [NVP-TAE684] (first compound 2 µM, partner dose 0.4 µM)	54.1	67.4	46.2	65.5	86.8	59.5	32.4	51.8	13.9	73.7	49.2	60.4	80.5	30.8	66.6	72.5	59.7	11.2	14.2	54.8
